Experimental data taken from the supplement of paper PMC3334620.
Over roughly 33,000 sequences, “E-score (-0.5 to 0.5)” has its median near -0.054; the highest 2% begin near 0.39. The list shows a part of the results.

molecular target: Ylr278c (UniProt Q05854); assay: PBM E-score (8-mer binding enrichment) (E-score (-0.5 to 0.5)); higher = stronger / more preferred TF binding; most listed sequences are background and not binding sites; conditions: protein concentration: 200 nM; construct: GST-DNA-binding domain
How it was run: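 Universal all-10-mer Agilent arrays, double-stranded by primer extension on fresh or once-stripped slides, were probed with about 100-200 nM GST-tagged yeast transcription factors made by PURExpress. Fluorescent anti-GST detected bound protein, and masliner normalised the scans. E-scores from the Universal PBM Analysis Suite were given to each ungapped eight-base word pooled with its reverse complement.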

| Sequence | PBM E-score |
| --- | --- |
| CACCGTAC | -0.0981 |
| ACTATCAA | -0.0259 |
| CCAGCCGA | -0.0508 |
| CGGAACTC | 0.409 |
| ACAAGCGG | 0.201 |
| AATAGACC | -0.0149 |
| GATGTCAC | 0.00498 |
| ACCGTAAT | 0.0827 |
| ATGAGAAC | -0.0284 |
| ATCATGAC | -0.225 |
| AAGATCTT | 0.0756 |
| CGGCGTCA | 0.191 |
| CTTTTTAA | -0.176 |
| CTCTGCAG | -0.192 |
| CCCTTGAC | -0.0913 |
| CAACTATG | -0.0641 |
| CGATTTCA | 0.0505 |
| CAGGACTA | -0.0233 |
| CTCGTTTA | -0.0777 |
| CGTTTCCA | -0.0556 |
| AAGCGGAG | 0.355 |
| CTCCGTAA | 0.41 |

| Sequence | PBM E-score |
| --- | --- |
| CGCGACAG | -0.0451 |
| CGCACAGA | -0.0706 |
| CCCATCTC | 0.0175 |
| AATGTACC | -0.167 |
| TGAACTAA | -0.162 |
| CTCGAGAG | -0.176 |
| GGATAACC | 0.18 |
| AAGTTATC | -0.0551 |
| CCTACTCA | 0.0149 |
| CGTTTCCC | 0.225 |
| GTAGGAGA | -0.0599 |
| AAAGACAG | 0.0173 |
| CCCAGTAG | -0.019 |
| GGCATAAA | -0.0245 |
| GACCTGAC | -0.198 |
| ACAGTGAA | -0.128 |
| AGAGGGCG | 0.076 |
| GAGGCCCA | 0.0293 |
| AGCCCCTA | 0.0295 |
| GAGATCGC | 0.0824 |
| ACGGTGAG | -0.00644 |
| CATCCTGA | -0.0621 |

| Sequence | PBM E-score |
| --- | --- |
| CCATGGTA | -0.315 |
| CCCCCAAA | -0.277 |
| TACCGCAA | 0.0363 |
| CCTCTGAG | -0.037 |
| ACACGTTG | -0.313 |
| AGAAACGA | 0.0429 |
| ATGCCCCG | 0.275 |
| ACATCCCC | 0.197 |
| AATCCTCC | 0.163 |
| ACGGCTGA | -0.0822 |
| CCTTCTTC | -0.209 |
| AGCGACAC | -0.182 |
| AACTGTCG | -0.0494 |
| AGCCGACA | 0.0582 |
| CTATCTCC | 0.236 |
| CGGTGATC | 0.234 |
| TGAACGCA | -0.162 |
| AATCTTCG | -0.0054 |
| CAGGTGGG | -0.0242 |
| CAAGATAC | -0.18 |
| ATAAGCAT | -0.127 |
| ATGTATAA | -0.029 |

| Sequence | PBM E-score |
| --- | --- |
| ATGGAAGA | -0.207 |
| AAGCGATG | -0.0348 |
| GGAGATTA | 0.249 |
| TGGGCCAA | -0.159 |
| GAAAACAA | 0.0431 |
| ATGTGGGC | -0.11 |
| CATTACGC | 0.159 |
| CGATAGGA | 0.111 |
| ACGGACGG | 0.209 |
| CACAGCTA | -0.29 |
| AATCCCAC | -0.0017 |
| GCTCCAGA | -0.103 |
| CCCCAGCC | -0.121 |
| CGTCGCCC | 0.065 |
| GCCATGCC | 0.0185 |
| GCATTGGA | 0.0238 |
| GAAGGGTA | 0.0363 |
| ATACTAAT | 0.0102 |
| CATAATAC | -0.148 |
| CAGATATG | 0.0911 |
